Reference: PubChem BioAssay AID488969 (Vanderbilt High Throughput Screening Facility, 2010)
The full ranking holds about 110,000 compounds; the median of “z-score” is about -0.1, and the highest 2% start at about 2. Some of the results follow.

These compounds were tested against Metabotropic glutamate receptor 8 (Rattus norvegicus) (UniProt P70579) (assay: rat mGluR8 modulators via GIRK flux, primary screen, cell-based, thallium flux, HTS (AID 488969)). Details: HEK293 rat mGluR8, GIRK (G protein-gated inwardly rectifying potassium channel) thallium flux, FluoZin2; at 10 µM; stronger effect = higher value; submaximal glutamate (EC20) added with thallium.
Chain of UniProt P70579 (P70579 whole entry, looked up): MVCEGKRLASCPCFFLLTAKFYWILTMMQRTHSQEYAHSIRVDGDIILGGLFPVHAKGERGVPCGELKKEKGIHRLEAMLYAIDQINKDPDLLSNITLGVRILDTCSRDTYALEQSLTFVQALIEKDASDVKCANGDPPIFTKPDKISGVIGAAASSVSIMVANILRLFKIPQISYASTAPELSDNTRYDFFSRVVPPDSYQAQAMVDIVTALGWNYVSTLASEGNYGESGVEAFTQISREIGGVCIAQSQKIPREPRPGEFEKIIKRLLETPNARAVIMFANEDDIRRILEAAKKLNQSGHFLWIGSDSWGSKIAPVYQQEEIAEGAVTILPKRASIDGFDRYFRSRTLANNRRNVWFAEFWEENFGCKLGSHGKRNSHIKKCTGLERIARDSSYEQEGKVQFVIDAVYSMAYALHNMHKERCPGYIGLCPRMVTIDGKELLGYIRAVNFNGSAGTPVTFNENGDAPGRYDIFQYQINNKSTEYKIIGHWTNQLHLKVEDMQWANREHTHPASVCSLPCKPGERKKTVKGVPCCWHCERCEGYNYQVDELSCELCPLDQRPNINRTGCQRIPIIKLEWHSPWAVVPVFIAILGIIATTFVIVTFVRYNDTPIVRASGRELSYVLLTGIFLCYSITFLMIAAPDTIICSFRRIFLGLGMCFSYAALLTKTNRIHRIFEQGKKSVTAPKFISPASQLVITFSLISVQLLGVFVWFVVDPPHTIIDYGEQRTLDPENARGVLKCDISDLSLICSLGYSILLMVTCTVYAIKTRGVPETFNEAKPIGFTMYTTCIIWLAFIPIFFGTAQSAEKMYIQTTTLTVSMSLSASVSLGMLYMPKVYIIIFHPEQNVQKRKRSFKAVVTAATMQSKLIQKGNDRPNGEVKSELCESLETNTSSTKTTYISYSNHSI

| Compound | z-score |
| --- | --- |
| O=C(COc1ccccc1)Nc1ccc(Cl)c(-c2nc3ncccc3o2)c1 | 0.571 |
| CCOC(=O)c1c(NC(=O)COC)sc(C)c1C | -1.71 |
| CCCCOC(=O)c1cc(-c2ccc(/C=N/n3cnnc3)o2)ccc1Cl | -0.536 |
| COc1ccccc1C1(CC(=O)N2CCCCC2)CCOC(C(C)C)C1 (stereo unspecified) | -0.108 |
| C=CCSC1=C(C#N)C(c2ccc(OCC)cc2)CC(=O)N1 (stereo unspecified) | -0.68 |
| CC(C)c1ccc(C2NC(=O)NC3=C2CCc2ccccc23)cc1 (stereo unspecified) | -1.97 |
| Cc1ccc(-c2nn(-c3ccccc3)cc2CSC(=N)N)cc1 | 1.43 |
| COc1ccc(N2CCN(/C(=N\S(=O)(=O)c3ccccc3)Nc3nc(C)cc(C)n3)CC2)cc1 | -0.27 |
| Cc1ccc(-c2nn(-c3ccccc3)cc2C(=O)Nc2cccc(S(=O)(=O)N3CCOCC3)c2)cc1 | -0.18 |
| O=C(O)c1cccnc1SC1CC(=O)N(c2cccc(C(F)(F)F)c2)C1=O (stereo unspecified) | 0.224 |
| COc1cccc(C(=O)Nc2nc(C)cs2)c1 | 0.159 |
| Cc1cc(Nc2ccccc2)c2c([N+](=O)[O-])cc(C)c(C)c2n1 | -0.275 |
| Cc1ccc(N/C=C/C(=O)c2sc(-c3ccccc3)nc2C)cc1 | -0.176 |
| Cc1ccc(C(C)C)c(OCCCN2CC(C)OC(C)C2)c1 (stereo unspecified) | 0.0811 |
| Cc1sc2nc(C)n(/N=C/c3ccccc3)c(=O)c2c1C | 1.25 |
| O=C(O)c1ccc(NC(CSCc2cccc(F)c2)C(=O)O)c([N+](=O)[O-])c1 (stereo unspecified) | -0.0333 |
| Cn1ccnc1C(O)(c1nnc(-c2ccccc2)o1)C(F)(F)F (stereo unspecified) | -1.19 |
| COc1ccc(-c2nn(C)c(=O)c3ccccc23)cc1NC(=O)Cn1nc(C)c2ccccc2c1=O | -0.146 |
| Cc1ccc(C(=O)NC2CCCCCC2)cc1N1CCCC1=O | 1.6 |
| CCOC(=O)c1c2n(c3ccc(O)cc13)CCC2 | -0.715 |
| COc1ccc(Nc2cc(C(=O)NCc3ccco3)c3ccccc3n2)c(OC)c1 | -0.421 |
| COc1cccc(C2C3=C(CC(C)(C)CC3=O)OC(N)=C2[N+](=O)[O-])c1 (stereo unspecified) | -0.0905 |
| CCOCc1nc(C)c(Cl)c(NS(=O)(=O)c2ccc(N)cc2)n1 | -0.149 |

| Compound | z-score |
| --- | --- |
| Cc1ccc(S(=O)(=O)NCC(c2ccccc2)N2CCN(CCC#N)CC2)cc1 (stereo unspecified) | -0.26 |
| Cc1cc(=O)n(C)c(=O)n1CCCCCCN1CCCC1 | 0.0302 |
| CC1(C)COC(c2cc([N+](=O)[O-])ccc2Cl)=N1 | -0.41 |
| Cc1cc(C)n(C(=O)c2ccc(Cn3nc(C)c(Br)c3C)o2)n1 | 0.0818 |
| Cc1ccc(C(C(=O)NC2CCCCC2)N(C(=O)CCCC(=O)Nc2ccccn2)c2ccc3c(c2)OCCO3)cc1 (stereo unspecified) | -0.444 |
| O=C(NCc1nnc(SCC(=O)N2CCCC2)o1)c1c(F)cccc1Cl | -0.244 |
| CC(C)(C)NC(=O)NC(=O)COC(=O)c1ccc(OC(F)(F)F)cc1 | -0.17 |
| CC1=C(C(=O)OC(C)C)C(c2ccc(Br)s2)NC(=O)N1 (stereo unspecified) | 0.0825 |
| CCOC(=O)C1CCN(S(=O)(=O)Cc2ccc(Cl)cc2)CC1 | -0.135 |
| O=S(=O)(NC1=NCCC1)c1ccc(F)cc1 | -0.444 |
| O=S(=O)(Nc1cccc(-c2cn3cccnc3n2)c1)c1ccc(F)cc1 | 0.0648 |
| O=C(NCc1ccco1)/C(=C/c1cccnc1)NC(=O)c1cccc(Br)c1 | -0.00332 |
| Clc1ccc2oc(-c3cccnc3NCc3ccccc3)nc2c1 | 0.164 |
| CCOC(=O)c1c(-c2cccc3ccccc23)csc1NC(=O)C1C2CCC(O2)C1C(=O)O (stereo unspecified) | -0.499 |
| Cc1cc(C)n(-c2ccc(C(=O)OCc3ccccc3)cc2)n1 | -1.03 |
| Cc1cc(C)n(CC(=O)c2ccc(Br)cc2)c(=O)c1C#N | -0.298 |
| CCn1c(COc2ccccc2)nnc1SCC(=O)Nc1cc(C)ccc1OC | -0.562 |
| CC(=O)Nc1cc(C)c(S(C)(=O)=O)c(C)c1 | 0.104 |
| CC(C)Nc1nnc(SCC(=O)Nc2ccc3c(c2)C(=O)c2ccccc2C3=O)s1 | -0.456 |
| COc1cc(NC(=O)c2ccc(Cl)cc2Cl)ccc1-c1cc2ccccc2oc1=O | -0.00523 |
| COc1ccccc1NC(=O)c1nn(-c2ccccc2)ccc1=O | -0.0727 |
| Cc1cc(C)cc(CC2CC(=O)N(c3ccc4c(c3)OCCO4)C2=O)c1 (stereo unspecified) | -0.0115 |
| Cc1cc(C)cc(C(=O)NCC(=O)OCc2c(C)noc2C)c1 | 1.47 |

| Compound | z-score |
| --- | --- |
| Cn1c(=O)[nH]c(=O)c2c1ncn2CCN1CCOCC1 | -0.0825 |
| Cc1ccc(C(C)C)cc1OCCCCN1CCCC1 | 0.832 |
| COc1ccc(C2NC(c3ccc(OC)c(OC)c3OC)C(C)C(=O)C2C)c(OC)c1OC (stereo unspecified) | -0.00134 |
| N/C(=N\OS(=O)(=O)c1cc(Cl)ccc1Cl)c1ccncc1 | -0.52 |
| Cc1ccc(C(C(=O)NC(C)(C)C)N(Cc2cccs2)C(=O)c2csnn2)cc1 (stereo unspecified) | -0.225 |
| Cc1c(S(=O)(=O)N2CCN(c3cccc(C(F)(F)F)c3)CC2)c(=O)n(C)c(=O)n1C | 0.21 |
| CC(C)Cc1nnc(NC(=O)CCC(=O)N2CCOCC2)s1 | 0.362 |
| COCCCNC(=O)c1ccc2c(=O)n(Cc3ccc4c(c3)OCO4)c(=S)[nH]c2c1 | -0.0433 |
| Cc1ccc(S(=O)(=O)N2CCN(c3ccc([N+](=O)[O-])c(NCCN4CCOCC4)c3)CC2)cc1 | 0.104 |
| Cc1c(C#N)c(NC(=O)c2ccccc2)n(Cc2ccccc2)c1C | -0.149 |
| O=c1c2ccccc2ncn1C1CCCCC1 | -0.102 |
| COc1cccc(NC(=O)Cn2c(=O)oc3ccccc32)c1 | 0.18 |
| CC(=O)Nc1ccc(OC/C=C(\C)Cl)cc1 | -0.678 |
| CCc1nnc(NC(=O)C(C)Sc2ccccc2)s1 (stereo unspecified) | 0.00353 |
| Cn1ncc2c(NNC(=O)Cc3ccccc3)ncnc21 | -0.137 |
| CCCc1nc(-c2ccc(-c3ccc(F)cc3)cc2)no1 | 0.218 |
| Cc1cc(C(=O)CSc2nc3ccccc3o2)c(C)n1CC1CCCO1 (stereo unspecified) | -0.415 |
| CCNC(=S)NNC(=O)c1cc(C2CC2)nc2ccccc12 | -0.145 |
| CCOc1cc(-n2nc(C)c(C#N)c2N)nc(SC)n1 | 0.00516 |
| COc1ccc(/C=C2\C(=O)N(c3nc(-c4ccc(Br)cc4)cs3)N=C2c2ccccc2)cc1 | -0.114 |
| COc1ccc2nc(C)cc(N3CC(C)OC(C)C3)c2c1 (stereo unspecified) | -0.169 |
| CCCCN(C)C(=O)C1CCC(=O)N(c2cc(OC)c(OC)c(OC)c2)C1c1ccc(OC)cc1 (stereo unspecified) | 0.102 |
| CCOc1cc(C#N)c(NC(=O)c2ccco2)cc1OCC | 0.407 |

| Compound | z-score |
| --- | --- |
| COc1ccc(C(=O)N(Cc2nc(-c3ccc(C)cc3)no2)C2CCCCC2)cc1OC | -0.367 |
| COc1ccc(C)cc1NC(=O)c1ccc(N(C)S(C)(=O)=O)cc1 | 0.563 |
| CC1(C)Cc2c(sc3c2C(=O)N(c2ccccc2)C2=NCCN23)CS1 | -0.646 |
| CC(=O)C1C(c2cccc(F)c2)NC(=O)NC1(O)C(F)(F)F (stereo unspecified) | -0.2 |
| CSc1nnc(CSCc2ccc(Cl)cc2Cl)n1-c1ccccc1 | -0.0778 |
| COc1ccccc1N1CCN(CCOc2c(OC)cccc2OC)CC1 | -0.206 |
| CS(=O)(=O)Nc1ccc(C(=O)NC2CC3CCC2C3)cc1 (stereo unspecified) | -0.309 |
| CC1(C)Oc2nc3ccccc3n2/C1=C\C#N | -0.233 |
| Cc1nn2c3ccccc3nc2n(Cc2ccccc2)c1=O | -0.111 |
| C=CCc1cc(/C=N/NC(=O)CSc2nnc(CCCc3ccc(OC)cc3)o2)cc(OC)c1O | -0.132 |
| CCc1nnc(NC(=O)c2nc3nccc(C)n3n2)s1 | 0.924 |
| CCOc1ccc2nc(NC(=O)CSc3ccc(Cl)cc3)sc2c1 | 0.25 |
| O=C(NCCN1CCOCC1)c1csc2c1CCCCC2 | -0.0192 |
| CCNC(=S)N/N=C(\C)c1ccc(N2CCOCC2)cc1 | 0.245 |
| O=C(O)CCCC(=O)Nc1ccc(C(=O)N2CCCCC2)c(Cl)c1 | -0.358 |
| COC(=O)C1=C(CN2CCN(C)CC2)NC(=O)NC1c1cc(C)ccc1C (stereo unspecified) | 0.795 |
| O=C(c1ccccc1)c1ccc(OCCCN2CCCCC2)cc1 | 1.54 |
| CCCCC1CCC(C(=O)Nc2ccc(S(=O)(=O)Nc3nccs3)cc2)CC1 (stereo unspecified) | -0.647 |
| O=C1Nc2ccc(F)cc2C12SCCS2 | -0.13 |
| C=CCc1cccc2cc(C(=O)O)c(=O)oc12 | -0.279 |
| Cc1cccc(Nc2nc(N3CCCCC3)nc(N3CCCCC3)n2)c1 | -0.356 |
| COc1ccc(Br)cc1CNC(=O)C1CCN(S(=O)(=O)N2CCCCC2)CC1 | -0.52 |
| O=C(Nc1ccc(Cl)cc1)OCCn1nnnc1C(c1ccccc1Cl)N1CCOCC1 (stereo unspecified) | 0.209 |

| Compound | z-score |
| --- | --- |
| COc1cc(C2NC(=O)NC(C)=C2C(=O)Nc2cccc(C)c2C)cc(OC)c1OC (stereo unspecified) | 0.0404 |
| Cc1cccc(N2CCN(C(=O)CCCSc3nc4ccccc4[nH]3)CC2)c1C | -0.505 |
| C/C(=N/NC(=O)c1cc(-c2cccc([N+](=O)[O-])c2)n[nH]1)c1ccc(Cl)cc1 | 0.0704 |
| Oc1ccc2ccccc2c1/C=N/Nc1ccccc1 | -0.0331 |
| CCc1cccc(OCCCN2C(=O)NC(C)(C)C2=O)c1 | 0.00102 |
| O=C(COC(=O)c1cnccn1)c1ccc2ccccc2c1 | 0.118 |
| O=C(Cn1c(=O)c2c(ncn2Cc2ccccc2)n(Cc2ccccc2)c1=O)N1CCCC1 | -0.391 |
| O=C(N1CCOCC1)C(F)(F)C(=O)N1CCOCC1 | -1.14 |
| CC1(C)C(=O)Nc2ccccc2N1C(=O)COc1ncnc2c(Cl)cc(Cl)cc12 | -0.821 |
| CCOC(=O)C1CCN(C(=O)C2CCCCC2)CC1 | 0.44 |
| C=CCn1c(Cc2ccc(OC(C)C)c(Cl)c2)nnc1SCC(N)=O | -0.113 |
| CC(=O)Nc1cccc(C(=O)N/N=C/c2ccccc2F)c1 | -0.261 |
| COc1ccnc(Nc2ccc(C)c(C)c2)c1C#N | -0.198 |
| COc1ccc(CC(=O)Nc2cc(S(=O)(=O)N3CCCCC3)ccc2N2CCN(C)CC2)cc1 | 0.455 |
| CCOC(=O)/C(C(N)=NC)=C(\O)c1ccccc1 | -0.332 |
| CCNC(=S)NNC(=O)c1c(Cl)c(C)nn1C | -0.0875 |
| CN1CCN(C(=S)c2ccc(Cl)cc2)CC1 | -0.452 |
| Cc1cccc(NC(=O)[C@H](Cc2ccccc2)NC(=O)OCc2ccccc2)c1 | -0.199 |
| CCCOc1c(Cl)cc(C(=O)Nc2ccc3c(c2)OCO3)cc1OCC | -0.217 |
